Laboratory results reported in paper PMC5700166.
The entries are a selection whose mix differs from that of the whole data set. The list includes weakly bound sequences.

Each sequence was assayed against T1, GST-Ap-NF-kB RHD (UniProt A0A913YAJ5) (assay: protein-binding microarray (PBM)). Conditions: PBM: ~300 nM protein, 6 mM HEPES pH 7.8, 80 mM KCl, 0.5 mM EDTA, 0.5 mM EGTA, 6% glycerol, 35 ng/ul poly-dIdC, 1% milk, 1 h, room temperature; Ap Aiptasia and Nv Nematostella (sea anemones) / Co Capsaspora / Aq Amphimedon (sponge) / Dm Drosophila / Hu human; RHD is the Rel homology domain; high values mean tight binding; most listed sequences are background and not binding sites; double strand, one strand shown.
T1 sequence: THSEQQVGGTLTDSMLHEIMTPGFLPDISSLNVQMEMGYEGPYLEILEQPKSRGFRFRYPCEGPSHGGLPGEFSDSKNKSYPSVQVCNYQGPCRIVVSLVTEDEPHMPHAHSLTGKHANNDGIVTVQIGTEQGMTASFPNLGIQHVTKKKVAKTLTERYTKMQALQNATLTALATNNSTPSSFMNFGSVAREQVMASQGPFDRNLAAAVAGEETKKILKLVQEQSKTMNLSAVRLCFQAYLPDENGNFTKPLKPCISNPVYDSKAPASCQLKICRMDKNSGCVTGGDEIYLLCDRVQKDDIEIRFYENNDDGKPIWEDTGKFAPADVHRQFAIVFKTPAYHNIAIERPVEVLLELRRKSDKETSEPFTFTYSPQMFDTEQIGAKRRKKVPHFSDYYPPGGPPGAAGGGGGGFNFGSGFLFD

Question: Which binding signal does the source give for “CCGATTAACATCAAAAAATTTCCTGATGTTAATCGGGTCTTGATTCGCTTGACGCTGCTG” here?
Answer: 0.184 z-score

Question: Which binding signal does the source give for “CCGATTAACATCACAGAATTTCCTGATGTTAATCGGGTCTTGATTCGCTTGACGCTGCTG” here?
Answer: 0.392 z-score

Question: “CCGATTAACATCAGCATCCACGGTGATGTTAATCGGGTCTTGATTCGCTTGACGCTGCTG” was tested. Which binding signal did it give?
Answer: 0.158 z-score

Question: For “CCGATTAACATCAGGAATATACATGATGTTAATCGGGTCTTGATTCGCTTGACGCTGCTG”, which binding signal is on record?
Answer: 0.0733 z-score

Question: “CCGATTAACATCAGGAAATAACATGATGTTAATCGGGTCTTGATTCGCTTGACGCTGCTG” was tested. Which binding signal did it give?
Answer: -0.389 z-score

Question: How did the binding signal turn out when “CCGATTAACATCAGGAATTTCTATGATGTTAATCGGGTCTTGATTCGCTTGACGCTGCTG” was run?
Answer: 0.367 z-score

Question: “CCGATTAACATCAATAAATGTACTGATGTTAATCGGGTCTTGATTCGCTTGACGCTGCTG” was tested. Which binding signal did it give?
Answer: -0.504 z-score

Question: For “CCGATTAACATCAGGAAATTCACTGATGTTAATCGGGTCTTGATTCGCTTGACGCTGCTG”, which binding signal is on record?
Answer: -0.25 z-score

Question: For “CCGATTAACATCAGGGAGATACCTGATGTTAATCGGGTCTTGATTCGCTTGACGCTGCTG”, which binding signal is on record?
Answer: 4 z-score

Question: “CCGATTAACATCAGGGGGGTAACTGATGTTAATCGGGTCTTGATTCGCTTGACGCTGCTG” was tested. Which binding signal did it give?
Answer: 5.83 z-score

Question: With “CCGATTAACATCAAAAACTACCCTGATGTTAATCGGGTCTTGATTCGCTTGACGCTGCTG” as the sequence, how does the binding signal read?
Answer: 4.12 z-score

Question: How did the binding signal turn out when “CCGATTAACATCAAGTATTTTCCTGATGTTAATCGGGTCTTGATTCGCTTGACGCTGCTG” was run?
Answer: 0.19 z-score

Question: Which binding signal does the source give for “CCGATTAACATCAGAAAGTTTCCTGATGTTAATCGGGTCTTGATTCGCTTGACGCTGCTG” here?
Answer: -0.162 z-score

Question: “CCGATTAACATCAAAAATTCCATTGATGTTAATCGGGTCTTGATTCGCTTGACGCTGCTG” was tested. Which binding signal did it give?
Answer: -0.572 z-score
